The values below come from ChEMBL document CHEMBL4888484, “Replenishing the malaria drug discovery pipeline: Screening and hit evaluation of the MMV Hit Generation Library 1 (HGL1) against asexual blood stage Plasmodium falciparum ,using a nano luciferase reporter read-out” (2022).

“And” between values parts separate entries of the source, which are not always exact repeats. Equal values may be shown once. About 540 (0.36%) of roughly 150,000 compounds showed an effect of 50% or more. This is one part of the list.

The experiment has as its system Plasmodium falciparum. Description: Primary screen in NF54 nanoGlo assay, in single point, at 2uM, 72h; a lower Z score goes with more inhibition. The experiment is classed as functional, Erythrocyte. As to conditions: timepoint 72 hour.

A word on the % Inhibition: it is the drop in the measured response relative to a control, in per cent. As for `Cc1ccc(N2CC(CO)C2)nc1C#N`, the “% Inhibition” value is recorded as -8% and the Z score was 1.39.
`CC(C)N(C(=O)c1cc(C2CCOCC2)nn1C)[C@H]1CCOC1`: the “% Inhibition” value was -10% and the Z score is 1.52.
For `COc1cccc(CNCCc2cccc3ccccc23)c1OC[C@@H](O)CN1CCOCC1`, the “% Inhibition” value is recorded as -8% and the Z score is 0.76.
On to `CCc1ncc(C(=O)N2CCc3[nH]c(-c4ccc(F)cc4F)nc3C2)cn1`, for which the “% Inhibition” value was -6% and the Z score came to 1.18.
Take `O[C@H]1[C@H](n2cc(-c3ccc(F)cc3)nn2)c2ccccc2C12CCNCC2`: the “% Inhibition” value was -17% and the Z score is recorded as 1.96.
For `CCNS(=O)(=O)c1ccc2c(c1)N(Cc1ncc(C(C)C)o1)CC2`, in that order: -1% and 0.14.
For the molecule `CCOC(=O)c1noc2ncnc(NCc3ccc4c(c3)OCO4)c12`, the “% Inhibition” value turned out to be 4% and the Z score is on record as -0.78.
Turning to `C[C@@H](O)CN(C)C(=O)c1cnc(N(C)C)cn1`, the “% Inhibition” value is -24% and the Z score was found to be 2.61.
Regarding `CCC1=NN(C(=O)c2ccc(OC)cc2)[C@@](O)(c2ccncc2)C1`, the “% Inhibition” value is -8% and the Z score is 1.03.
In the case of `COc1ccnc([C@H](C)NCCn2c(C)nc3ccccc32)c1`, the “% Inhibition” value is -8% and the Z score is 1.01.
Regarding `O=C(Cc1cccnc1)N1CCOCC1`, the “% Inhibition” value is on record as -10% and the Z score is 1.1.
In the case of `CCCCn1c(C(=O)NCc2ccccc2)cc2cc(NC(=O)CCc3ccccc3)ccc21`, the “% Inhibition” value was 1% and the Z score is -0.08.
Turning to `Cn1cnc2cc(C(=O)N(CCC(F)(F)F)C3CCCCC3)cnc21`, the “% Inhibition” value is 3% and the Z score was -0.43.
As to `O=C(c1cc2n(n1)CCCC2)N1CCCC12CCC2`, the “% Inhibition” value was -2% and the Z score amounted to 0.27.
As to `CCCN(CC(=O)N(Cc1ccc(F)cc1)Cc1ccc(C)s1)C(=O)Nc1ccccc1`, the “% Inhibition” value is -7% and the Z score is reported as 0.73.
Take `CC[C@H]1C=CCN1S(=O)(=O)c1ccc2c(c1)NC(=O)CO2`: the “% Inhibition” value worked out at 2% and the Z score is reported as -0.34.
As to `COc1ccc(-c2cnn3c(C)cc(C)nc23)cc1S(=O)(=O)Nc1ccccc1F`, the “% Inhibition” value is -23% and the Z score is 2.21.
On to `COC(=O)CC(C)(C)CC(=O)N1C(C)CN(C)CC1C` (stereo not drawn), for which the “% Inhibition” value is -14% and the Z score is given as 1.82.
As to `Nc1c(C(=O)Nc2ccccn2)nnc2ncnn12`, the “% Inhibition” value is listed as -46% and the Z score is given as 5.41.
In the case of `CC1OCCN(CCOc2ccc(C(=O)O)cc2Cl)C1C` (stereo not drawn), the “% Inhibition” value is reported as -3% and the Z score came to 0.45.
On to `CCn1ccnc1[C@H]1OCCC[C@@H]1C(=O)N1CCc2c(F)ccc(F)c21`, for which the “% Inhibition” value came out at 0% and the Z score is on record as 0.07.
Take `Cc1csc(-c2cc(C)nn(CC(=O)N(C3CCCCC3)[C@H]3CCS(=O)(=O)C3)c2=O)n1`: the “% Inhibition” value is given as -18% and the Z score is reported as 1.99.
As for `CN1CC[C@@](Cc2ccccc2)(C(=O)NCCc2ccccn2)C1=O`, the “% Inhibition” value is -2% and the Z score amounted to 0.19.
The like results for `COCCCOc1ccc(C(=O)Nc2ccc(OC(F)F)cc2F)cn1` were, in that order, -51% and 5.96.
For `COc1ccc(C(=O)Nc2cc(-c3ccccc3F)nn2-c2ccccc2)cc1`, the “% Inhibition” value was -12% and the Z score is on record as 1.63.
For the molecule `O=S1(=O)CCC(NC2CCN(CC(F)(F)F)C2)c2cc(F)c(F)cc21` (stereo not drawn), the “% Inhibition” value is -9% and the Z score stood at 1.2.
As to `Cc1nc(-c2ccccc2Cl)sc1CNC(=O)COc1ccc2c(c1)OCO2`, the “% Inhibition” value is 4% and the Z score is -0.71.
Take `CCc1nc(OCC(=O)NCc2ccccc2)c2c(C)c(C)oc2n1`: the “% Inhibition” value is -4% and the Z score is recorded as 0.51.
Consider `CCN1CCN(C(=O)c2cc3cn(C4CCCC4)cc3s2)CC1`, for which the “% Inhibition” value is on record as -2% and the Z score is reported as 0.3.
For `CCC1Oc2cc(C(C)NC(C)c3ccccn3)ccc2NC1=O` (stereo not drawn), in that order: -9% and 1.28.
On to `COc1ccc([C@H]2C(=O)N(C3CCCCCC3)CC(=O)N2Cc2ccccc2OC)cc1`, for which the “% Inhibition” value is given as -9% and the Z score is on record as 1.19.
For `O=C(NCC1(c2ccsc2)CCOCC1)c1ccno1`, in that order: 10% and -1.5.
For the molecule `COc1cccc(CNC(=O)c2cn(Cc3cccc(F)c3)nc2OCc2cccc(F)c2)c1`, the “% Inhibition” value was -15% and the Z score came to 1.73.
For `Cc1n[nH]c(C)c1-c1ccc(C(=O)N2CCCCC2)cn1`, in that order: -9% and 1.53.
In the case of `Nc1nc2c(s1)CN(c1nccc(N3CCC[C@H](O)C3)n1)CC2`, the “% Inhibition” value is reported as -13% and the Z score is given as 1.9.
The like results for `CCC1CCCC1NC(C)c1ccccn1` (stereo not drawn) were, in that order, -3% and 0.28.
Regarding `O=C(C1CCC1)N1CCc2sc(S(=O)(=O)NCc3cccc(Cl)c3)cc2C1`, the “% Inhibition” value came to 5% and the Z score is -0.89.
Take `CCNC(=O)C(C)(C)CN[C@@H](C)c1occc1Br`: the “% Inhibition” value was -18% and the Z score was determined as 2.77.
Consider `O=C(Nc1ccc2c(c1)OCCO2)C1C2C(=O)N(c3ccccc3F)C[C@]23C=C[C@H]1O3` (stereo partly drawn), for which, for the setting “2 µM”, the “% Inhibition” value is -7% and -13%; the Z score was 1.34 and 1.6.
In the case of `CC(C)Cc1cc(CNC(=O)c2cn3c(n2)CNCC3)no1`, the “% Inhibition” value is -25% and the Z score is recorded as 2.53.
Turning to `O=C1CCC(=O)N1Oc1c(F)c(F)c(C(F)(F)F)c(F)c1F`, the “% Inhibition” value is reported as 4% and the Z score was -0.46.
Regarding `O=C1CC2(CCCCCC2)C(=O)N1c1ccccc1Cl`, the “% Inhibition” value is listed as -15% and the Z score worked out at 1.4.
As to `Cc1nn(-c2ccccc2)c2sc(-c3noc([C@H]4CC(=O)N(c5ccccc5)C4)n3)cc12`, the “% Inhibition” value worked out at 18% and the Z score is -2.05.
For `C[C@H]1CN(C(=O)CC(C)(C)O)CCN1C(=O)CC(C)(C)O`, the “% Inhibition” value is 5% and the Z score is listed as -0.69.
In the case of `Cc1cccc2c1NC(=O)[C@H]2Cc1cccc(Oc2ccccc2)c1`, the “% Inhibition” value is reported as -15% and the Z score is 1.3.
Consider `CCNc1ncc(C(=O)N2CC3CC2(C(N)=O)C3)s1`, for which the “% Inhibition” value is listed as -9% and the Z score stood at 1.67.
For `O=S(=O)(c1ccc(F)c(F)c1)N(CCN1CCOCC1)[C@H]1CCCNC1`, the “% Inhibition” value amounted to 1% and the Z score was -0.19.
For `CN(C)c1cc(O[C@H]2CCN(C(=O)c3ccnn3C)C2)ncn1`, the “% Inhibition” value came to 3% and the Z score is -0.33.
For `Cc1nc(NC(=O)[C@H]2CCCN(C(=O)C(C)(C)C)C2)c(-c2ccccc2)s1`, in that order: -3% and 0.51.
The like results for `C[C@@H](C(N)=O)N1CCC2(CC1)CN(CCOc1ccccc1)C(=O)O2` were, in that order, -15% and 1.48.
Regarding `Cn1nncc1C1(O)CN(c2ncc(Cl)s2)C1`, the “% Inhibition” value is -7% and the Z score turned out to be 1.23.
`NC(=O)[C@H]1CCCN(CCNC(=O)c2c[nH]nc2-c2ccccc2)C1`: the “% Inhibition” value is reported as -13% and the Z score came out at 1.39.
As to `O=C(NC1CCN(Cc2ccccc2)CC1)[C@H]1CC(=O)N(c2ccc(F)cc2)C1`, the “% Inhibition” value is listed as -3% and the Z score is reported as 0.46.
As to `CCOc1ccccc1NC(=O)N1C[C@H](Oc2cccnc2)C[C@@H]1C(=O)N1CCOCC1`, the “% Inhibition” value came to 5% and the Z score was -0.64.
`Cc1nsc(N(C)C[C@H]2COc3ccccc3O2)c1C#N`: the “% Inhibition” value is -15% and the Z score is listed as 1.47.
As for `COc1cccc(COC[C@@H](O)CN(C)c2ccc(C#N)cc2)c1`, the “% Inhibition” value is listed as -11% and the Z score came out at 1.11.
As for `CC(C)N1CCC(CC(=O)N2CCn3nc(Cc4ccccc4)cc3C2)CC1`, the “% Inhibition” value is -4% and the Z score was 0.56.
Take `Cc1nc(N2CCCC2)nc(C)c1NC(=O)Nc1ccccc1Cl`: the “% Inhibition” value is given as -10% and the Z score was determined as 1.57.
Consider `CCc1cccc(C)c1NC(=O)N(CC)CC(=O)N1CCCCCC1`, for which the “% Inhibition” value is -12% and the Z score is listed as 1.1.
As to `COCc1cc(CN(C)C(=O)[C@H]2CCCN(Cc3ccco3)C2)n[nH]1`, the “% Inhibition” value is listed as -10% and the Z score stood at 0.96.
For the molecule `O=C(c1cc2n(n1)CCN(Cc1cccc(Cl)c1)C2=O)N1CCN(C/C=C/c2ccccc2)CC1`, the “% Inhibition” value is -3% and the Z score was 0.53.
As to `C[C@@H](CNS(C)(=O)=O)Oc1ccccc1Br`, the “% Inhibition” value is reported as 4% and the Z score is on record as -0.33.
As for `N#Cc1ncn(Cc2ccc(C(=O)Nc3ccccc3)cc2)c1C#N`, the “% Inhibition” value was -14% and the Z score was 2.56.
Consider `COCC(=O)N(C1CCOCC1)C1CCN(C(=O)c2cc(C)ccc2C)CC1`, for which the “% Inhibition” value was -13% and the Z score is 1.6.
Turning to `CCOCCNC(=O)Nc1c(C)c(C2CC2)nn1-c1ccccc1`, the “% Inhibition” value is reported as -2% and the Z score was 0.22.
The like results for `CN(Cc1cccc2cnccc12)C1CCN(C(=O)c2ccccc2)CC1` were, in that order, -8% and 0.99.
With `O=C(NCc1noc(-c2ccco2)n1)c1cnn[nH]1`, the “% Inhibition” value is -8% and the Z score stood at 1.56.
Take `c1ccc([C@@H]2CN(Cc3ccco3)Cc3ccccc3O2)cc1`: the “% Inhibition” value was 7% and the Z score is on record as -0.89.
As to `COC(=O)[C@@H]1C[C@H](O)CN1Cc1ccc(-n2nc(C)cc2C)cc1`, the “% Inhibition” value is -4% and the Z score turned out to be 0.69.
With `COC(C1CC1)C(C)NC(=O)C1CCCCC(=O)N1` (stereo not drawn), the “% Inhibition” value is on record as -8% and the Z score is on record as 1.06.
The like results for `Cc1nnc2ccc(Br)cc2c1C` were, in that order, -4% and 0.49.
Regarding `Cc1cc(S(C)(=O)=O)cc(C(=O)N2CCCc3ccccc3CC2)c1C`, the “% Inhibition” value is -4% and the Z score worked out at 0.59.
Take `CN1CCN(C[C@@H]2CN(C(=O)c3ccc(N(C)C)cc3)C[C@@H]2CO)CC1`: the “% Inhibition” value was -17% and the Z score was determined as 1.59.
The like results for `CCCn1ncc(C(=O)NC[C@H]2CCS(=O)(=O)C2)c1C` were, in that order, -7% and 1.08.
For the molecule `O=C(NC[C@H]1CCCO1)c1ccc2nc(-c3ccccc3)cn2c1`, the “% Inhibition” value was -11% and the Z score is reported as 2.21.
In the case of `C[C@@H](CCn1cccn1)NCc1ccc2c(c1)OCCO2`, the “% Inhibition” value is -9% and the Z score is on record as 1.27.
On to `Cc1c(NCc2cccc3c2OC(C)(C)C3)cccc1C(=O)NCCO`, for which the “% Inhibition” value was 2% and the Z score is on record as -0.3.
Regarding `Cc1cc(CC2CCCC2NCc2scnc2C)n(C)n1` (stereo not drawn), the “% Inhibition” value is reported as -6% and the Z score is 0.72.
Regarding `O=C(Cn1cnc(-c2ccccc2)n1)NCc1noc(-c2cccc(Br)c2)n1`, the “% Inhibition” value is -9% and the Z score was 1.27.
For the molecule `CC(C)(C)c1cc(Cn2nc3ccncc3c2C(F)(F)F)no1`, the “% Inhibition” value is -18% and the Z score stood at 2.56.
With `CC1CCC2(CC1)OC[C@@H](C(=O)NCCN1CCCC1)N2C(=O)c1ccccc1F` (stereo partly drawn), the “% Inhibition” value is on record as -2% and the Z score turned out to be 0.29.
As for `Cc1cc(N2CCCCCC2)n2nc(Cc3ccccc3)nc2n1`, the “% Inhibition” value was -6% and the Z score worked out at 1.09.
With `C[C@@H]1CN(C(=O)c2cc(F)ccc2Cl)CCN(C2CC2)C1`, the “% Inhibition” value is on record as 6% and the Z score is -0.75.
Consider `Cc1c(C(=O)N2CCC[C@H](C)C2)cnn1-c1nccc(-c2cccs2)n1`, for which the “% Inhibition” value is given as 12% and the Z score is given as -1.53.
